Laboratory results reported in PubChem BioAssay (NCI).
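Assay format: 96-well plates, 48-hour exposure. GI50 marks 50% less growth. TGI denotes the concentration required for complete inhibition of growth.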

Tested on: NCI-H322M lung
Assay: NCI tumour cell line growth inhibition, 48 h

Structure (SMILES)	GI50 [nM]	TGI [nM]
CC1=C[C@H]2O[C@@H]3C[C@H]4OC(=O)/C=C\C=C\[C@H]([C@@H](C)O)OCC/C(C)=C/C(=O)OC[C@@]2(CC1)[C@]4(C)[C@]31CO1	16.4	97.3
CN(C)CCN(C)c1ccc2ncc(C#Cc3cncc(C(=O)Nc4ccc(CN5CCN(C)CC5)c(C(F)(F)F)c4)c3)n2n1	3420	9800
